The inconclusive results got no clear call from the source; some entries with a clear call stand among them for comparison. A potency beside an inconclusive call is a rough fit, not a confirmed value. Calls of active or inactive are those of the source. Calls follow the shape of the dose curve; as a rule, active = well fitted curve in the direction sought with a large enough effect in the repeat runs; inconclusive = weak or mixed curves; inactive = no such curve, though single readings can be large; an effect the other way counts as inactive or inconclusive.
Assays:
[1] = Human pregnane X receptor (PXR) small molecule agonists, qHTS cell viability counter screen (AID 1346977); details: PXR-Luc HepG2 viability, CellTiter-Fluor, 24 h; series mostly up to 92.4 µM; also: nearly all actives have a fitted effect of over 50% in size
How it was run: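 Fluorescence read-out (CellTiter-Fluor) of viability in PXR-Luc HepG2 cells, multiplexed with the luciferase agonist read. Compounds in DMSO added after 5hr plating; 24hr total exposure at 37C, 5% CO2.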

[2] = Caspase-3/7 induction in HepG2 cells by small molecules, qHTS cell viability counter screen (AID 1346981); details: CellTiter-Fluor fluorescence, 17 h; series mostly up to 92.4 µM; also: nearly all actives have a fitted effect of over 30% in size
How it was run: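 Wild-type HepG2 cells, 2,000/well, settled 5 hr at 37 C, 5% CO2 before compound addition. Viability read by CellTiter-Fluor fluorescence, reagent added after 16 hr compound exposure, then 1 hr at 37C, in the same wells as the caspase read.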

[3] = Caspase-3/7 induction in CHO-K1 cells by small molecules, qHTS cell viability counter screen (AID 1346979); details: CellTiter-Fluor fluorescence, 17 h; series mostly up to 92.4 µM; also: nearly all actives have a fitted effect of over 35% in size
How it was run: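 CHO-K1 wt, 1,500 cells/well; 5hr pre-incubation 37C/5% CO2; compound pin transfer (DMSO); 16hr exposure; CellTiter-Fluor added, 1hr, fluorescence read.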

[4] = biological target: Cytochrome P450 2D6 (Homo sapiens) (UniProt P10635); experiment: Cytochrome P450 Family 2 Subfamily D Member 6 (CYP2D6) small molecule antagonists: luciferase reporter qHTS assay (AID 1671196); details: P450-Glo CYP2D6 enzyme assay, luciferin luminescence, 1 h; series mostly up to 115 µM; also: nearly all actives have a fitted effect of over 50% in size
How it was run: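 Cell-free P450-Glo system: CYP2D6 with proluciferin substrate was pre-incubated with compound for 10 min, then reacted with NADPH regeneration for 1 h at room temperature. Luciferin product was detected after 20 min, and data were reported as relative luminescence units.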

[5] = biological target: Cytochrome P450 1A2 (Homo sapiens) (UniProt P05177); experiment: Cytochrome P450 Family 1 Subfamily A Member 2 (CYP1A2) small molecule antagonists: luciferase reporter qHTS assay (AID 1671199); details: P450-Glo CYP1A2 enzyme, luciferin luminescence, 1 h; series mostly up to 115 µM; also: nearly all actives have a fitted effect of over 50% in size
How it was run: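 P450-Glo CYP1A2 enzyme–proluciferin substrate mix with compound 10 min at room temperature, then NADPH regeneration 1 h at room temperature. Luciferin detection reagent added, luminescence read after 20 min; furafylline positive control.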

[6] = biological target: Voltage-gated inwardly rectifying potassium channel KCNH2 (Homo sapiens) (UniProt Q12809); experiment: Human Ether-a-go-go-Related Gene (hERG) channel small molecule antagonists: fluorescence cell-based qHTS assay (AID 1671200); details: hERG-U2OS cells, FluxOR thallium flux fluorescence; series mostly up to 76.8 µM; also: nearly all actives have a fitted effect of over 50% in size
How it was run: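 Read-out: thallium influx as a surrogate for potassium, tracked as fluorescence (480 nm ex/540 nm em) every second for 2 min after Stimulus Buffer addition in dye-loaded hERG-U2OS cells.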

[7] = biological target: Nuclear receptor subfamily 1 group I member 2 (Homo sapiens) (UniProt O75469); experiment: Human pregnane X receptor (PXR) small molecule agonists, qHTS assay (AID 1346982); details: PXR-Luc HepG2, CYP3A4 luciferase reporter, 24 h; series mostly up to 92.4 µM; also: nearly all actives have a fitted effect of over 35% in size
How it was run: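 PXR-Luc HepG2 reporter cells (CYP3A4-driven luciferase) in 5% charcoal-stripped FBS medium, plated 5 h before compound addition, then treated 24 h at 37C. Luciferase read by ONE-Glo luminescence after 30 min at room temperature.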

[8] = biological target: Nuclear receptor subfamily 1 group I member 2 (Homo sapiens) (UniProt O75469); experiment: CYP3A4 induction through human pregnane X receptor (PXR) by small molecules, qHTS assay (AID 1346984); details: DPX-2 HepG2 PXR, CYP3A4-luciferin luminescence, 24 h; series mostly up to 46.1 µM; also: nearly all actives have a fitted effect of over 40% in size
How it was run: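 DPX-2 HepG2 cells carrying a PXR response element and CYP3A4-promoter luciferase construct, treated with compounds 24 hr at 37C. Then P450-Glo CYP3A4 Luciferin-IPA substrate (3uM final) for 3 hr at 37C, One-Glo added, luminescence read.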
Potency is read from the fitted curve at half-maximal effect; tags tell the direction and shape of the fitted curve.

Sequence of UniProt P05177 (P05177 whole entry, looked up): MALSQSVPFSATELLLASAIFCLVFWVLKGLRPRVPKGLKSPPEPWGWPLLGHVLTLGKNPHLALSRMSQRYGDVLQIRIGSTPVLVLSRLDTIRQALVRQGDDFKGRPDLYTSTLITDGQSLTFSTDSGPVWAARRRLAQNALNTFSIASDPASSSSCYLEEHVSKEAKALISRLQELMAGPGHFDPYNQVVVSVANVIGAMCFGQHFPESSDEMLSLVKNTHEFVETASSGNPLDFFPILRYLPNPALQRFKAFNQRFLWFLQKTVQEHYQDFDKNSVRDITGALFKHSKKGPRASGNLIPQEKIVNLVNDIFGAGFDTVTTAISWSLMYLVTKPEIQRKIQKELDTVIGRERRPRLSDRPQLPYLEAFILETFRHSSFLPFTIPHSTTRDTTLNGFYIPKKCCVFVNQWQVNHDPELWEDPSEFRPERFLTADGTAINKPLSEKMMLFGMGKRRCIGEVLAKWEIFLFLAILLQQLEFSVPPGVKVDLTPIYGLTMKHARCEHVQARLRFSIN
Sequence of UniProt P10635 (P10635 whole entry, looked up): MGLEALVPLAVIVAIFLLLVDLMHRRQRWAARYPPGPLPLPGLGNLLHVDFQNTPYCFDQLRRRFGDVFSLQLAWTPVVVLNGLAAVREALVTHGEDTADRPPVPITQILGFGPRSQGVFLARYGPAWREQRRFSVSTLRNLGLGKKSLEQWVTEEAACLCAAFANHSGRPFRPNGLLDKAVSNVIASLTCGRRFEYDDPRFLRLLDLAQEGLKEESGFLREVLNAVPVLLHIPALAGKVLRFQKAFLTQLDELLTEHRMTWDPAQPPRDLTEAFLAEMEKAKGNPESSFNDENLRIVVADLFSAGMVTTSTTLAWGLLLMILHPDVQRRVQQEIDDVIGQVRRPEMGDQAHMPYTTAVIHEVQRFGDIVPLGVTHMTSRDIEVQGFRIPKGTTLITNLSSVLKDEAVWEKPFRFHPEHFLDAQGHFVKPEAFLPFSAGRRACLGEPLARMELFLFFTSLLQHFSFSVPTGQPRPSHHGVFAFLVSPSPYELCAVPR
Sequence of UniProt Q12809 (Q12809 whole entry, looked up): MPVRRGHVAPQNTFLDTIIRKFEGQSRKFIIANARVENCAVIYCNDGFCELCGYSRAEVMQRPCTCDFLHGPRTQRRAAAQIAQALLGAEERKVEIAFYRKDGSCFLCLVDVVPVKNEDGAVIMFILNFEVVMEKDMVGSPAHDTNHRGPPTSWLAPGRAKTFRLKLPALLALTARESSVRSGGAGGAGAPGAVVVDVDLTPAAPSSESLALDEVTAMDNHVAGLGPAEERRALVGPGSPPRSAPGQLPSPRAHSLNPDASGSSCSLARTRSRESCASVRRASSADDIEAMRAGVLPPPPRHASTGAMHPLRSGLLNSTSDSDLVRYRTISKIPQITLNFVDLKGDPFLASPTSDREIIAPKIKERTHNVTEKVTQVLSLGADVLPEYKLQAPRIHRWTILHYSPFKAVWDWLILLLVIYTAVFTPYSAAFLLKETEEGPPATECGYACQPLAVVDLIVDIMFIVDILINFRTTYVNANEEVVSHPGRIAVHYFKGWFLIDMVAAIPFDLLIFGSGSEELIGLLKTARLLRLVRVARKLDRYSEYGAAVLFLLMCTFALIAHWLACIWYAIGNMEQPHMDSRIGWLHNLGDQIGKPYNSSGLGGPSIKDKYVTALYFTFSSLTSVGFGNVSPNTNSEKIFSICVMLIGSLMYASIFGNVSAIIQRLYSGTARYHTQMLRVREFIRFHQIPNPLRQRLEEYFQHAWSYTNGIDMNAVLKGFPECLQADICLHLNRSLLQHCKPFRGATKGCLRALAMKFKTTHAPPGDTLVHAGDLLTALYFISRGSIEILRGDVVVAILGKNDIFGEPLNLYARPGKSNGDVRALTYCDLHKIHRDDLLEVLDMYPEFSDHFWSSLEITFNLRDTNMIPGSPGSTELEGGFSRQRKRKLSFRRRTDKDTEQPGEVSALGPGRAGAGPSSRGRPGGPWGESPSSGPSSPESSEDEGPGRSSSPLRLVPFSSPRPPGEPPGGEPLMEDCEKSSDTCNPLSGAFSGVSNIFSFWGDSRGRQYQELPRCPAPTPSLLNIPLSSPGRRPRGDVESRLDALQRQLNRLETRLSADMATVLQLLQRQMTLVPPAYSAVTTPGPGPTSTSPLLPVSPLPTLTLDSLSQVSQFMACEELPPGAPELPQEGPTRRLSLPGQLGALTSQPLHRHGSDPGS

SMILES	Potency [1]	Potency [2]	Potency [3]	Potency [4]	Potency [5]	Potency [6]	Potency [7]	Potency [8]
CC(C)OC(=O)C(C)N(C(=O)c1ccccc1)c1ccc(F)c(Cl)c1 (centres undefined)	inconclusive: 68.6 µM [cytotoxic, single point]	inconclusive: 77 µM [cytotoxic, single point]						
O=C(Nc1ccc([N+](=O)[O-])cc1)Nc1ccc([N+](=O)[O-])cc1 (tested in a mixture with another compound)	inactive		inconclusive: 33.5 µM [cytotoxic, single point]	inactive	inactive			
CC(C)(C)c1ccc(OCC2CO2)cc1 (centres undefined)	inconclusive: 44.2 µM [cytotoxic, partial curve]		active: 55.6 µM	inconclusive: 40.7 µM [inhibitor, partial curve]	inconclusive: 72.4 µM [inhibitor, partial curve]			
CC1CC(=O)NN=C1c1ccc(NCC(C)(C)NCC(O)COc2cc(Cl)ccc2C#N)cc1 (centres undefined)	inconclusive: 29.8 µM [cytotoxic]		inactive			inconclusive: 21.3 µM [inhibitor, partial curve]		
CNCCC(Oc1ccccc1OC)c1ccccc1 (centres undefined)	inconclusive: 26.6 µM [cytotoxic, partial curve, poor fit]	inactive		active: 0.977 µM	inconclusive: 25.7 µM [inhibitor, partial curve, poor fit]		inconclusive: 33.5 µM [activator, partial curve, poor fit]	
O=C(NC1CCN(CCc2c[nH]c3ccccc23)CC1)c1ccccc1	inconclusive: 26.6 µM [cytotoxic, partial curve, poor fit]	inactive			inactive	active: 4.77 µM	inactive	inconclusive: 25.1 µM [activator, single point]

— PubChem BioAssay (Tox21)
